Laboratory results taken from patent US12491259B2, “Anti-variable MUC1* antibodies and uses thereof” (Minerva Biotechnologies Corporation, priority 2022, dated 2025).
Marks after values point to notes of the source that are not given here.

B1: 20A10-OKT3-BiTE: knob-in-hole bispecific: humanized anti-MUC1* antibody 20A10 arm and anti-CD3 antibody OKT3 arm (protein)
chain 1: QVQLVESGGGLVKPGGSLRLSCAASGFTFSTYAMSWIRQAPGKGLEWVASIGRAGSTYYSDSVKGRFTISRDNAKNSLYLQMNSLRAEDTAVYYCARGPIYNDYDEFAYWGQGTLVTVSSGGGGSGGGGSGGGGSEIVLTQSPATLSLSPGERATLSCKSSQSVLYSSNQKNYLAWYQQKPGQAPRLLIYWASTRESGIPARFSGSGSGTDFTLTISSLEPEDFAVYYCHQYLSSLTFGGGTKVEIKR[no letters for human IgG1 Fc with changes]
chain 2: QVQLVQSGGGVVQPGRSLRLSCKASGYTFTRYTMHWVRQAPGKGLEWIGYINPSRGYTNYNQKVKDRFTISTDKSKSTAFLQMDSLRPEDTAVYYCARYYDDHYCLDYWGQGTTLTVSSGGGGSGGGGSGGGGSDIQMTQSPSSLSASVGDRVTITCSASSSVSYMNWYQQTPGKAPKRWIYDTSKLASGVPSRFSGSGSGTDYTFTISSLQPEDIATYYCQQWSSNPFTFGQGTKLQITR[no letters for human IgG1 Fc with changes]TGWSHPQFEK
modifications: left off: small tags and cut ends
notes: knob-in-hole bispecific: humanized anti-MUC1* antibody 20A10 arm and anti-CD3 antibody OKT3 arm
B2: 20A10-12F6-BiTE: knob-in-hole bispecific: humanized anti-MUC1* antibody 20A10 arm and anti-CD3 antibody 12F6 arm (protein)
chain 1: QVQLVESGGGLVKPGGSLRLSCAASGFTFSTYAMSWIRQAPGKGLEWVASIGRAGSTYYSDSVKGRFTISRDNAKNSLYLQMNSLRAEDTAVYYCARGPIYNDYDEFAYWGQGTLVTVSSGGGGSGGGGSGGGGSEIVLTQSPATLSLSPGERATLSCKSSQSVLYSSNQKNYLAWYQQKPGQAPRLLIYWASTRESGIPARFSGSGSGTDFTLTISSLEPEDFAVYYCHQYLSSLTFGGGTKVEIKR[no letters for human IgG1 Fc with changes]
chain 2: QVQLVQSGGGVVQPGRSLRLSCKASGYTFTSYTMHWVRQAPGKGLEWIGYINPSSGYTKYNQKFKDRFTISADKSKSTAFLQMDSLRPEDTGVYFCARWQDYDVYFDYWGQGTPVTVSSGGGGSGGGGSGGGGSDIQMTQSPSSLSASVGDRVTMTCRASSSVSYMHWYQQTPGKAPKPWIYATSNLASGVPSRFSGSGSGTDYTLTISSLQPEDIATYYCQQWSSNPPTFGQGTKLQITR[no letters for human IgG1 Fc with changes]TGWSHPQFEK
modifications: left off: small tags and cut ends
notes: knob-in-hole bispecific: humanized anti-MUC1* antibody 20A10 arm and anti-CD3 antibody 12F6 arm

Key:
Assay type in all cases: cell-based
[1] = test system: HCT-MUC1* cells (HCT-116 colon cancer cells transduced to express MUC1*); experiment: Bispecific-mediated T cell / cancer cell clustering (photographs of co-culture); conditions: HCT-MUC1* + human T cells, bispecific 0.05-1,000 ng/mL
Method: 20A10 is a humanized anti-MUC1* antibody and OKT3 is an antibody that binds to CD3 that is present on human T cells. […] In FIG. 3A the concentration of the bispecific antibody is 1,000 ng/mL. In FIG. 3B concentration is 333 ng/mL. In FIG. 3C concentration is 111 ng/mL. In FIG. 3D concentration is 37 ng/mL. In FIG. 3E concentration is 12.3 ng/mL. In FIG. 3F concentration is 4.1 ng/ml. In FIG. 3G concentration is 1.3 ng/mL. In FIG. 3H concentration is 0.4 ng/mL. In FIG. 3I concentration is 0.15 ng/mL. In FIG. 3J concentration is 0.05 ng/ml. FIG. 3K is a control well in which both T cells and cancer cells are present, but no bispecific antibody has been added. […]
(§1) As an example of how antibodies of the invention can be incorporated into bispecific antibodies, a bispecific antibody using a knob-in-hole, also known as KIH (Spiess et al. Molecular Immunology 67, 95-106 (2015)), format was constructed. […] In addition, cancer cell killing was quantified. Measurement of the cytotoxicity of the anti-MUC1* targeting bispecific antibody in which 20A10 binds to the extra cellular domain of MUC1* on the tumor cell surface and an anti-CD3 antibody called OKT3 was measured using an LDH cytotoxicity assay. […] In addition to analyzing the target cancer cells, the T cells were also analyzed. […] Secretion of IFN-g from the T cells into the conditioned media was measured in an ELISA assay (FIG. 1O). […]

[2] = test system: interferon-gamma (IFN-g) secretion from the T cells; experiment: ELISA of IFN-g secreted by T cells into conditioned media; conditions: T47D + human T cells
Excerpt: as §1, with “constructed. In this example, a first arm of the antibody is the humanized anti-MUC1* antibody 20A10, also known as hu20A10, with a 14616 human framework region; the second arm of the antibody is either the anti-CD3 antibody OKT3 or 12F6, which both bind to the same epitope on human T cells.” for “constructed.”
(§2) In yet another example, an anti-MUC1*/anti-CD3 bispecific antibody is constructed using 20A10 for binding to the extra cellular domain of MUC1* positive cancer cells and an anti-CD3 antibody 12F6 to bind to the T cells. […] In addition, cancer cell killing was quantified. […] In addition to analyzing the target cancer cells, the T cells were also analyzed. […]

[3] = test system: TNF-alpha secretion from the T cells; experiment: ELISA of TNF-alpha secreted by T cells into conditioned media; conditions: T47D + human T cells
Excerpt: as §1, with “constructed. In this example, a first arm of the antibody is the humanized anti-MUC1* antibody 20A10, also known as hu20A10, with a 14616 human framework region; the second arm of the antibody is either the anti-CD3 antibody OKT3 or 12F6, which both bind to the same epitope on human T cells.” for “constructed.”
as §2

T47D breast cancer cells [4] = experiment: Bispecific-mediated T cell / cancer cell clustering (photographs of co-culture); conditions: T47D + human T cells, bispecific 0.05-1,000 ng/mL
Method: (§3) 20A10 is a humanized anti-MUC1* antibody and OKT3 is an antibody that binds to CD3 that is present on human T cells. […] In FIG. 1A the concentration of the bispecific antibody is 1,000 ng/mL. In FIG. 1B concentration is 333 ng/mL. In FIG. 1C concentration is 111 ng/mL. In FIG. 1D concentration is 37 ng/ml. In FIG. 1E concentration is 12.3 ng/mL. In FIG. 1F concentration is 4.1 ng/mL. In FIG. 1G concentration is 1.3 ng/ml. In FIG. 1H concentration is 0.4 ng/mL. In FIG. 1I concentration is 0.15 ng/mL. In FIG. 1J concentration is 0.05 ng/ml. […] FIG. 1L is a control well in which only cancer cells are present.
(§4) 20A10 is a humanized anti-MUC1* antibody and 12F6 is an antibody that binds to CD3 that is present on human T cells. […] In FIG. 2A the concentration of the bispecific antibody is 1,000 ng/mL. In FIG. 2B concentration is 333 ng/mL. In FIG. 2C concentration is 111 ng/mL. In FIG. 2D concentration is 37 ng/mL. In FIG. 2E concentration is 12.3 ng/ml. In FIG. 2F concentration is 4.1 ng/ml.

T47D breast cancer cells [5] = experiment: LDH cytotoxicity assay, cancer cells co-cultured with human T cells and bispecific antibody; conditions: T47D + human T cells
Method: as §3, §4

Row | Molecule | joining together of T cells and MUC1* positive cancer cells (cell clustering) [1] | bispecific concentration for half-maximal secretion of IFN-g [2] [ng/mL] | bispecific concentration for half-maximal secretion of TNF-α [3] [ng/mL] | joining together of T cells and MUC1* positive cancer cells (cell clustering) (T47D breast cancer cells [4]) | cancer cell killing (LDH cytotoxicity, A490) (T47D breast cancer cells [5])
1 | B1 | dose-dependent cell clustering | 12.3 | 12.3 |  | 
2 | B2 | dose-dependent cell clustering | 50 | 200 | dose-dependent cell clustering | potent killer of MUC1* positive tumor cells
